{"source": "paper PMC10657792", "about": "“Downstream Allosteric Modulation of NMDA Receptors by 3-Benzazepine Derivatives” (Molecular Neurobiology, 2023)", "assay_in_all_cases": "TEVC recording in X. laevis oocytes, GluN2B mutant screening", "format_in_all_cases": "cell-based", "key": {"[1]": {"molecular_target": "GluN1b wt/ GluN2B Q110A (Rattus norvegicus, UniProt P35439+Q00960, Q110A)", "sequence (Q00960 27-1482 Q110A, other chains not shown)": "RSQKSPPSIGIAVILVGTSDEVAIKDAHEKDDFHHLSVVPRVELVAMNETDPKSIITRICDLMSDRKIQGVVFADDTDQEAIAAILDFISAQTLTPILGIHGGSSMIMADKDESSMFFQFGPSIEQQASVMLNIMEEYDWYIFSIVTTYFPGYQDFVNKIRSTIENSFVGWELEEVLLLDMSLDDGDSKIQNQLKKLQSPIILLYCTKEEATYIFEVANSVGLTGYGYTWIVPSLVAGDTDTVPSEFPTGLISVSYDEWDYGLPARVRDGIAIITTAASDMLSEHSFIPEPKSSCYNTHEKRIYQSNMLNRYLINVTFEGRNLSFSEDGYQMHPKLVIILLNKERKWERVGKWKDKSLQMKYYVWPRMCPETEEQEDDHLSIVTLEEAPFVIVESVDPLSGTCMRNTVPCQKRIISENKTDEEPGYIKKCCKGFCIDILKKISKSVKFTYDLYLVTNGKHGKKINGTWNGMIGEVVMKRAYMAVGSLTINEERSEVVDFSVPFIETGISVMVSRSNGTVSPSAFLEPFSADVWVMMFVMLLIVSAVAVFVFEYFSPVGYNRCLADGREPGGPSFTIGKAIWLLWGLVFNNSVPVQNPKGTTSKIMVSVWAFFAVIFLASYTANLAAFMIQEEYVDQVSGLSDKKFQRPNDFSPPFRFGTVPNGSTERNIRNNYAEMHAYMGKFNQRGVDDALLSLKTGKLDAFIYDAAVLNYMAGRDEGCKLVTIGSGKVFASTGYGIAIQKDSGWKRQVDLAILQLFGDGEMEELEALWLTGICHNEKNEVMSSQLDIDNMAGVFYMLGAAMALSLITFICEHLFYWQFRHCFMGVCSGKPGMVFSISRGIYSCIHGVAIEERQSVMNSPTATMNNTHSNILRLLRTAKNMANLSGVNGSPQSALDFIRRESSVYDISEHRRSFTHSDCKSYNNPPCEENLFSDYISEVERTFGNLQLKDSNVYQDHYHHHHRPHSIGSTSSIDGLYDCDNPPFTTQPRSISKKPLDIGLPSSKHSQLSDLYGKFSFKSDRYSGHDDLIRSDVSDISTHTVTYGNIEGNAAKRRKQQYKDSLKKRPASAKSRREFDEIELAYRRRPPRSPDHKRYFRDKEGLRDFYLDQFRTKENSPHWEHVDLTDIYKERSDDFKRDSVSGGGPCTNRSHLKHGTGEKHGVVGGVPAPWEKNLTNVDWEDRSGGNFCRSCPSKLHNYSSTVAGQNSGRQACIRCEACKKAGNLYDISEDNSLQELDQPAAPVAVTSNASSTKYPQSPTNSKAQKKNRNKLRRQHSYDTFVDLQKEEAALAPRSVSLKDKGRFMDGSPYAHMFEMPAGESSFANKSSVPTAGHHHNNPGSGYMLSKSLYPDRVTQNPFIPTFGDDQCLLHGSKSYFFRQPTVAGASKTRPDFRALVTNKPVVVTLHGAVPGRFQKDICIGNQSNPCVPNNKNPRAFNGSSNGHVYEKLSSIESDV", "conditions": "GluN1-1b/Q110A, single oocytes", "protocol": "(§1) Single point mutations were incorporated into template DNA (GluN1-1b wt/ pSGEM and GluN2B wt/ pSGEM) by using the QuikChange II XL site-directed mutagenesis kit (Agilent Technologies, Germany). Mutagenesis primers were designed using the QuikChange Primer Design Program (Agilent) and provided by Microsynth (Microsynth AG, Balgach, Switzerland). For mutation of the desired amino acid in the gene, PCR amplification was performed with the respective mutagenesis primers (Eppendorf MasterCycler Gradient, Eppendorf Hamburg, Germany). Mutations were verified by automated DNA sequencing. Constructs were linearized with PacI (GluN1) or NheI (GluN2B). cRNA was prepared byin vitrotranscription using the mMessage mMachine T7 kit (Life Technologies, Darmstadt, Germany).\n(§2) The NMDAR was expressed in stage V and VI oocytes originated from X. laevis. Oocytes were provided by Ecocyte Bioscience (Dortmund, Germany), and equimolar amounts of wild-type and mutated GluN1 and GluN2B cRNA were injected (0.8 ng each). The oocytes were incubated in Barth’s solution, containing (mmol l^−1): 88 NaCl, 1 KCl, 0.4 CaCl2, 0.33 Ca(NO3)2, 0.6 MgSO4, 5 TRIS–HCl, 2.4 NaHCO3, supplemented with 80 mg l^−1 theophylline, 63 mg l^−1 benzylpenicillin, 40 mg l^−1 streptomycin, and 100 mg l^−1 gentamycin and maintained at 18 °C until usage. After injection, the oocytes were incubated for 5 days at 18 °C. Subsequently, the activity of the expressed NMDARs in the oocytes was recorded by two-electrode voltage clamp (TEVC).\n(§3) The compounds were retrieved as 10 mM stock solutions in DMSO and were subsequently diluted with agonist solution and adjusted to 0.1% DMSO concentration. Inhibition of each compound was measured via TEVC in X. laevis oocytes at room temperature using a Turbo Tec 10CX amplifier (NPI electronic, Tamm, Germany), NI USB 6221 DA/AD Interface (National Instruments, Austin, USA), and GePulse Software (Dr. Michael Pusch, Genova, Italy). Ba^2+-Ringer, consisting of 10 mM HEPES, 90 mM NaCl, 1 mM KCl, and 1.5 mM BaCl2, adjusted to pH 7.4, was used for TEVC measurements. Agonist solution containing 10 µM glycine and 10 µM (S)-glutamate was prepared in Ba^2+-Ringer, and the measurements were performed at a holding potential of − 70 mV, using electrodes with a glass capillary filled with 3 M KCl and a resistance between 0.5 and 1.5 MΩ. The compounds were tested by applying ascending concentrations, ranging from 1 to 30,000 nM, in at least six oocytes. Example traces for all recorded conditions can be found in Supplementary Figs. S2–S9.\n(§4) TEVC data were analyzed using Ana (Dr. Michael Pusch, Genova, Italy), and statistics were performed using OriginPro 2020 (OriginLab Corporation, Northampton, USA). The inhibitory effect of each compound is calculated using the following equation: inhibition=1-Ic-Ih/Ia-Ih where Ih describes the current in the absence of agonists; Ia represents the steady-state current in the presence of the agonists; and Ic is defined as the steady-state after binding of agonist and compound. All dose response curves are fitted to the following logistic equation: y=A1-A2/1+x/x0^p+A2 where A1 describes the minimal inhibition of a compound and was set to 0; A2 represents the maximal inhibition of a compound; p is the slope of the curve; x0 is defined as the concentration at half-maximal inhibition; and x is the tested concentration. Data were statistically analyzed by one-way ANOVA and Tukey post-hoc mean comparison test in OriginPro 2020 (OriginLab Corporation, Northampton, USA). p values are indicated by * for p < 0.05, ** for p < 0.01, and *** for p < 0.001."}, "[2]": {"molecular_target": "GluN1b wt/ GluN2B N192A/F194A (Rattus norvegicus, UniProt P35439+Q00960, F194A/N192A)", "sequence (Q00960 27-1482 N192A/F194A, other chains not shown)": "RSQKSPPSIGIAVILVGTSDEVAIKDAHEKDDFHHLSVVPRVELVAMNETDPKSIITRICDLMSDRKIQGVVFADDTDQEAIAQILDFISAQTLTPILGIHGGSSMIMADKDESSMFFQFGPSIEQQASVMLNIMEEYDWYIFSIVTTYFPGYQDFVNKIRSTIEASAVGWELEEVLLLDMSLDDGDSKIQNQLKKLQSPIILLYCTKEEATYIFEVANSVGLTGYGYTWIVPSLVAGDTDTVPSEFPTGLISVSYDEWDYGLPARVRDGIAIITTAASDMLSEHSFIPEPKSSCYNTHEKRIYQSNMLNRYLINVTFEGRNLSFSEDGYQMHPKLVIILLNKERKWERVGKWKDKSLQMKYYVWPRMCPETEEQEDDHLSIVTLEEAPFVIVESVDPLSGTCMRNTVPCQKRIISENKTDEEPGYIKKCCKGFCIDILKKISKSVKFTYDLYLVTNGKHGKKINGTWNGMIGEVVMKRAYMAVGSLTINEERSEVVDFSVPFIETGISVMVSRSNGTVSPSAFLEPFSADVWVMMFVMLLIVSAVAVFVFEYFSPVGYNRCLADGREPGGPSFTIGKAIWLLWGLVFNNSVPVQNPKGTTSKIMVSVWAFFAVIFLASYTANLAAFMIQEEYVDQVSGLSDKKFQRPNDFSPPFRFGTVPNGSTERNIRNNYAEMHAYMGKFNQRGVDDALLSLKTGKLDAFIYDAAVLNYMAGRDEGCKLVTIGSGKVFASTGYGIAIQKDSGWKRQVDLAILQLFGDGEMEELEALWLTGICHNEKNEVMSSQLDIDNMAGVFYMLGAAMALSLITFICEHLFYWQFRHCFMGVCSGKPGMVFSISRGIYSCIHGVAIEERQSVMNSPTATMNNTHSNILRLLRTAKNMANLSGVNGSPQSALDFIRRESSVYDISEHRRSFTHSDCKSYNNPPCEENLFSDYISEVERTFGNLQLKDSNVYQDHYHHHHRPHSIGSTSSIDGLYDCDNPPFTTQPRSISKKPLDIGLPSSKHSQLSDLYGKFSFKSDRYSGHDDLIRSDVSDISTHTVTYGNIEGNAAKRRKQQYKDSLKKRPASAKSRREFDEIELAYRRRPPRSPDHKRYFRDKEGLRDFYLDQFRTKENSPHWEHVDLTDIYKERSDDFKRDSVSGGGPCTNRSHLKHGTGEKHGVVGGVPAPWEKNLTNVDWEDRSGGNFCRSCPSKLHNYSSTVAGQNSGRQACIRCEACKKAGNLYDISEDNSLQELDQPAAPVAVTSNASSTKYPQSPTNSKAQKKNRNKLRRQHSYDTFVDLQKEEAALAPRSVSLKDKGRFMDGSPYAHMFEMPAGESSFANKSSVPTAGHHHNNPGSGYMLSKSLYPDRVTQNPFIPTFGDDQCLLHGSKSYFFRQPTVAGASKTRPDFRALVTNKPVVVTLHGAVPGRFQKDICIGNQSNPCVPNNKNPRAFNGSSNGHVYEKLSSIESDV", "conditions": "GluN1-1b GluN2B N192A/F194A, single oocytes", "protocol": "as §1, §2, §3, §4"}, "[3]": {"molecular_target": "GluN1b wt/ GluN2B E236A (Rattus norvegicus, UniProt P35439+Q00960, E236A)", "sequence (Q00960 27-1482 E236A, other chains not shown)": "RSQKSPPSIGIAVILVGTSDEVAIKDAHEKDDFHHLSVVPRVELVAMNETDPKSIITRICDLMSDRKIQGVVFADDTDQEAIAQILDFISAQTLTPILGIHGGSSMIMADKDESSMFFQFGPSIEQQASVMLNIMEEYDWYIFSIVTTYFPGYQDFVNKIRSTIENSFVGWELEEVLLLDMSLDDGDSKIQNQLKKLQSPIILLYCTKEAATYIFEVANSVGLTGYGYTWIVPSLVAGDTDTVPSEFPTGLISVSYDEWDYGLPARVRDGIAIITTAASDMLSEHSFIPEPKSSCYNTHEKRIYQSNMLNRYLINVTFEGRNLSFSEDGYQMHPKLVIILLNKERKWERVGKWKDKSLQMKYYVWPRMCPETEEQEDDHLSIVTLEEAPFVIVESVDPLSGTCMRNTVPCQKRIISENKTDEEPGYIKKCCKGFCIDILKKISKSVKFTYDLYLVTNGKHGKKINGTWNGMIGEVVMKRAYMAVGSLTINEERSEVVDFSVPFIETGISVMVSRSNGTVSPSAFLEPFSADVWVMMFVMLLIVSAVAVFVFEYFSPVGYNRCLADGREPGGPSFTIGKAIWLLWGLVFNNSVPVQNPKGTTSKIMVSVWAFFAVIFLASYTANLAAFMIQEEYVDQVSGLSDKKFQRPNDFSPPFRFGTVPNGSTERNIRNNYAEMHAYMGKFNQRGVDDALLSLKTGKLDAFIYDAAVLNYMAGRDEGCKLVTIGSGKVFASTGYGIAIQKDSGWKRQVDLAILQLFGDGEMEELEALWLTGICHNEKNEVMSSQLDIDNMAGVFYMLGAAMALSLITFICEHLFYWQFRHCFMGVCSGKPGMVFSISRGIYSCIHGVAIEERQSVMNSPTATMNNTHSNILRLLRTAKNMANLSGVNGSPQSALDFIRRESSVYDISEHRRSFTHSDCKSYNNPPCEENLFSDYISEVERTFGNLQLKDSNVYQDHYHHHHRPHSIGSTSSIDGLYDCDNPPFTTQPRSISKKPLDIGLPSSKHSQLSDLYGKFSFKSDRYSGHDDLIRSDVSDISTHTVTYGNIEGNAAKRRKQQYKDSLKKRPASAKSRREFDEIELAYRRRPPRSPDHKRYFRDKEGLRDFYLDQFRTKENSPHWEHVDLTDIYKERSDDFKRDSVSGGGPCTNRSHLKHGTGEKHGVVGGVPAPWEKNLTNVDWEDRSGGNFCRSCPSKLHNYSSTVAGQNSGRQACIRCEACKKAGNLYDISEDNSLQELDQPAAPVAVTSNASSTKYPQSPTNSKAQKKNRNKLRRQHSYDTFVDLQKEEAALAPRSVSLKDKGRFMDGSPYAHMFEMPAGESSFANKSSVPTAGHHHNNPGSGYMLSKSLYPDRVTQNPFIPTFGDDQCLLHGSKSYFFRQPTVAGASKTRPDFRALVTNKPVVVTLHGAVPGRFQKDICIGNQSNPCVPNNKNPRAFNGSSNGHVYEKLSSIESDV", "conditions": "GluN1-1b/E236A, single oocytes", "protocol": "as §1, §2, §3, §4"}, "[4]": {"conditions": "compound concentration 0.001 μM, 0.001 µM"}, "[5]": {"conditions": "compound concentration 0.01 μM, 0.01 µM"}, "[6]": {"conditions": "compound concentration 1 μM, 1 µM"}, "[7]": {"conditions": "compound concentration 10 μM, 10 µM"}, "[8]": {"conditions": "compound concentration 30 μM, 30 µM"}}, "note": "Several values for one entry are separate records, joined by “and”; a condition that tells them apart may be missing. Equal values may be shown once. Further values from the same series stand in other lists.", "data": [{"smiles": "Oc1ccc2c(c1)CCN(CCCCc1ccccc1F)C[C@@H]2O", "note": "[(R)-OF-NB1]", "values": [{"measurement": "inhibition (%)", "setting": "[1]; [4]", "result": "0.08538% and 0.08022% and 0% and 3.773% and 0.6808%"}, {"measurement": "inhibition (%)", "setting": "[1]; [5]", "result": "0.2135% and 0.8984% and 0.09131% and 6.386% and 0.9531%"}, {"measurement": "inhibition (%)", "setting": "[1]; [6]", "result": "63.8847% and 47.3608% and 67.7066% and 43.0432% and 53.8678%"}, {"measurement": "inhibition (%)", "setting": "[1]; [7]", "result": "66.196% and 77.355% and 60.3104% and 75.2702%"}, {"measurement": "inhibition (%)", "setting": "[1]; [8]", "result": "73.5761% and 79.5313% and 72.8862% and 80.4698%"}, {"measurement": "inhibition (%)", "setting": "[2]; [6]", "result": "30.0765% and 42.645% and 32.0859% and 35.9801% and 27.5699%"}, {"measurement": "inhibition (%)", "setting": "[2]; [7]", "result": "41.2448% and 54.8573% and 41.8896% and 45.7586% and 40.043%"}, {"measurement": "inhibition (%)", "setting": "[2]; [8]", "result": "42.0541% and 55.663% and 44.525% and 48.1091% and 43.2401%"}, {"measurement": "inhibition (%)", "setting": "[3]; [4]", "result": "-0.7277% and -0.09897% and -3.685% and 0.09223% and -0.4964%"}, {"measurement": "inhibition (%)", "setting": "[3]; [5]", "result": "-0.02683% and -0.8697% and -0.1414% and -3.324% and 0.8432%"}, {"measurement": "inhibition (%)", "setting": "[3]; compound concentration 0.1 μM, 0.1 µM", "result": "-0.3622% and -1.881% and -0.02828% and -2.8222% and 2.885%"}, {"measurement": "inhibition (%)", "setting": "[3]; [6]", "result": "34.2208% and 29.1673% and 28.2691% and 42.4638%"}, {"measurement": "inhibition (%)", "setting": "[3]; [7]", "result": "48.9705% and 53.372% and 37.1276% and 55.6127%"}, {"measurement": "inhibition (%)", "setting": "[3]; [8]", "result": "61.6968% and 66.4216% and 62.7783% and 65.1515%"}]}]}
